Test results taken from the supplement of paper PMC5655136.
Values come from read counts of a selection and are noisy.

System: NB7
Test: fold depletion of shRNA, plasmid library share / infected cells without Dox share (9 days) (ratio); higher = more depleted after infection (more toxic, leaky expression from a Tet-inducible vector; NB7 is a neuroblastoma line without caspase-8)
Settings: shRNA pool: CD95L ORF + CD95L 3'UTR + Venus libraries
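Note: shRNA barcodes quantified by deep sequencing of PCR amplicons from cellular DNA, counts expressed as percent of each subpool, ratio averaged over two biological duplicates.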

Sequence	fold depletion of shRNA
GCTGGAGTTCGTGACCGCCGC	1.45
TGTATTTCCAGTGCAATTGTA	1.21
CGGCGGCGTGCAGCTCGCCGA	0.608
ATCTCAGACGTTTTTCGGCTT	3.41
GTTTTTCGGCTTATATAAGCT	3.36
CATTTGAGGTCAAGTAAGAAG	1.02
TACCAGGTGTTCTACACTCAT	2.49
TCAATTTTGAGGAATCTCAGA	0.931
ACATGCATTTGAGGTCAAGTA	0.829
CTTCTTACATGCATTTGAGGT	1.34
GTGACCTGAGGATTTAAGGGA	0.28
AACATCCTGGGGCACAAGCTG	1.7
CACCGAGAATGTTGTATTCAG	3.45
CATGGTTCTGGTTGCCTTGGT	1.53
ACCCGCGCCGAGGTGAAGTTC	0.744
GTGACCGCCGCCGGGATCACT	0.861
ACCACATGAAGCAGCACGACT	1.4
GCTGCCCGTGCCCTGGCCCAC	0.995
CGCAGCAGCTACCTGGGGGCA	0.191
ATGTGCATTTTTGTGAAATGA	2.33

Sequence	fold depletion of shRNA
GTGACCACCCTGGGCTACGGC	2.07
CGACCACTACCAGCAGAACAC	1.34
GTCAATTTTGAGGAATCTCAG	0.536
TGGGCTGTACTTTGTATATTC	1.86
GCGACACCCTGGTGAACCGCA	1.8
CATGGTTGTGACCTGAGGATT	0.629
TCGAGGGCGACACCCTGGTGA	1.06
CAAGTAAGAAGACATGAACCA	0.598
GCCCCTCCAGGCACAGTTCTT	32.2
TCACATGGTCCTGCTGGAGTT	4.82
TGCCCTGGCCCACCCTCGTGA	1.08
TTCCGGGGTCAATCTTGCAAC	7.2
ATGTTTCAGCTCTTCCACCTA	0.972
TCTTTGTTACAGGCACCGAGA	3.76
GCTACCCCGACCACATGAAGC	0.964
CAGCTCTCCCTGGGCCCCTCC	32.5
GTGGCCTTGTGATCAATGAAA	0.633
TCTTAGTGCCTGAGAGTATTT	7.36
CTCAGACGTTTTTCGGCTTAT	2.14
GGGAACCACAGCACAGGCCTG	1.56

Sequence	fold depletion of shRNA
ACCTGAGGATTTAAGGGATGG	1.49
AGTGCTGATCATTTATATGTC	0.769
TACCGCTGCCACCCCTGAAGA	1.49
GCTACGTCCAGGAGCGCACCA	0.45
CCCTGAGCAAAGACCCCAACG	1.84
AAGAGGCTGAAAGAGGCCAAT	3.67
GCTGAGGAAAGTGGCCCATTT	0.393
CCACCCTGGGCTACGGCCTGC	0.861
CCCTGAAAAAAAGGAGCTGAG	1.3
GACTAGAGGCTTGCATAATAA	1.19
AGACGTTTTTCGGCTTATATA	1.91
TGCATATCCTGAGCCATCGGT	0.96
CTTCTTCAAGGACGACGGCAA	4.04
GAGAATGTTGTATTCAGTGAG	1.55
TCACTCTCGGCATGGACGAGC	1.47
TGCATTTTTGTGAAATGAAAA	1.3
TTTTTGTGAAATGAAAACATG	1.24
GAGACCACAGGGTTCAAAATG	6.57
ACGTAAACGGCCACAAGTTCA	1.15

Same assay, conditions: shRNA pool: CD95 ORF + CD95 3'UTR + Venus libraries

Sequence	fold depletion of shRNA
GCTGGAGTTCGTGACCGCCGC	1.06
CTTTTTTTGTAACTCTACTGT	0.8
GTCCAAGACACAGCAGAACAG	1.32
TGTAACTCTACTGTATGTGAA	0.776
CACCCCCAAACATGGAAATAT	1.84
GGTACATTTTATCATTTATTA	1.24
AGAATGGTGTCAATGAAGCCA	0.948
CGGCGGCGTGCAGCTCGCCGA	0.636
CTGCTTGGTTTTTTACTGGGT	0.736
AACATCCTGGGGCACAAGCTG	1.76
AGATCAAGAATGACAATGTCC	1.15
ACCCGCGCCGAGGTGAAGTTC	0.867
TTATGTAAAGTATATGTATTT	1.06
GTGACCGCCGCCGGGATCACT	0.708
CTGTAAATACTGCTTGGTTTT	0.939
AAGGCTCTACCTCAAAGACCT	2.52
ACCACATGAAGCAGCACGACT	1.77
GCCAATTCTGCCATAAGCCCT	24.4
TCACCAGCAACACCAAGTGCA	0.742
GCTGCCCGTGCCCTGGCCCAC	0.94
CATATGATTCTGTAGTATGAA	0.581
TATTTCTAAACTTTGTTTATA	0.89
TCAAAAGCATTTTGAGCAGGA	1.21
GTGACCACCCTGGGCTACGGC	1.37
TTGGTTTTTTACTGGGTACAT	0.89
CGACCACTACCAGCAGAACAC	1.59
GTGTATGCATTTTACTGGCTC	13.3

Sequence	fold depletion of shRNA
CTCTACTGTATGTGAACACTG	3.93
AGAAAACATTAAATTATAATG	0.744
GCTTGGTTTTTTACTGGGTAC	2.15
AAATTCAGTTCTGAGTATATG	2.18
GTTGAGACTCAGAACTTGGAA	4.46
ATATATCACCACTATTGCTGG	1.03
AGCTTTGCCACCTCTCCATTT	0.633
CCCCAAACATGGAAATATCAC	3.91
CATGCAGAAAGCACAGAAAGG	2.05
GAACCAGACTGCGTGCCCTGC	0.632
CTTCTTCTTTTGCCAATTCCA	1.54
GCACAGTCAATGGGGATGAAC	2
GCGACACCCTGGTGAACCGCA	0.808
GAGTATTACTAGAGCTTTGCC	1.58
AATAGATTCTTATTTTTCCCC	1.31
TGTCATATTATACAATATTTC	0.981
ACTACTATCCTACGTTTAAAT	0.925
TCGAGGGCGACACCCTGGTGA	1.31
ACATTAAATTATAATGTTTGA	0.671
CATGCTAAGTACCCAAATAGG	0.206
CAAAAGTGTTAATGCCCAAGT	1.55
AAGGGATTGGAATTGAGGAAG	1.29
TCACATGGTCCTGCTGGAGTT	3.13
TGCCCTGGCCCACCCTCGTGA	0.987
GCTACCCCGACCACATGAAGC	1.11
CAGTGTATGTTAGTACAAATG	0.866
GAAAGTTTGTATTAAATGTGA	0.976

Sequence	fold depletion of shRNA
ATTTTGAGCAGGAGAGTATTA	1.83
CCACTAATTGTTTGGGTGAAG	1.23
CACAGTTTATTGGTGTCATAT	0.896
GAACACTGTGACCCTTGCACC	1.58
TTTAAATATCTTTGAAAGTTT	1.13
AAAACAAACTTCATCAAGAGT	1.4
CATATTTATGTAAAGTATATG	0.888
GCTACGTCCAGGAGCGCACCA	0.55
CCCTGAGCAAAGACCCCAACG	1.3
ATCATCTGGATTTAGGAATTG	1.23
CCACCCTGGGCTACGGCCTGC	0.621
ATGAATCAATAGAAGAAGCTA	0.849
TAAATTACCTCTGATAATTCT	1.44
GTGGCAATAAATTTATCTGAT	1.12
ATTCACATAGAAAACATTAAA	0.752
TCCAAGGGATTGGAATTGAGG	2.71
CTTCTTCAAGGACGACGGCAA	2.06
TCACCACTATTGCTGGAGTCA	1.25
TCACTCTCGGCATGGACGAGC	1.19
AAATCCTGAAACAGTGGCAAT	4.67
TTACTACTATCCTACGTTTAA	0.875
TAGATTGTGTGATGAAGGACA	15.7
CTCTTGTCATACCCCCAAGTT	2.03
TTAAAGGCTTTGTTCGAAAGA	0.287
ACGTAAACGGCCACAAGTTCA	1.71
ATTCTAGCCTGGTTTGGAGAT	2.74
